Experimental data: PubChem BioAssay AID360 (National Center for Advancing Translational Sciences (NCATS), 2006)
In all, about 48,000 compounds went through this assay and about 550 (1.1%) were called active. Another 4% or so got no clear call; they are omitted. Cut-off read from the data, not from the text of the source: active = potency below about 15 µM; inconclusive = mostly about 16 µM to 33 µM; inactive = weaker than that. Some of the results follow.

The compounds below were run against Lysosomal acid glucosylceramidase (Homo sapiens) (UniProt P04062) (assay: Glucocerebrosidase). Details: purified enzyme, resorufin glucoside fluorescence (screen aimed at inhibitors), 20 min.
Sequence of UniProt P04062 (P04062 whole entry, looked up): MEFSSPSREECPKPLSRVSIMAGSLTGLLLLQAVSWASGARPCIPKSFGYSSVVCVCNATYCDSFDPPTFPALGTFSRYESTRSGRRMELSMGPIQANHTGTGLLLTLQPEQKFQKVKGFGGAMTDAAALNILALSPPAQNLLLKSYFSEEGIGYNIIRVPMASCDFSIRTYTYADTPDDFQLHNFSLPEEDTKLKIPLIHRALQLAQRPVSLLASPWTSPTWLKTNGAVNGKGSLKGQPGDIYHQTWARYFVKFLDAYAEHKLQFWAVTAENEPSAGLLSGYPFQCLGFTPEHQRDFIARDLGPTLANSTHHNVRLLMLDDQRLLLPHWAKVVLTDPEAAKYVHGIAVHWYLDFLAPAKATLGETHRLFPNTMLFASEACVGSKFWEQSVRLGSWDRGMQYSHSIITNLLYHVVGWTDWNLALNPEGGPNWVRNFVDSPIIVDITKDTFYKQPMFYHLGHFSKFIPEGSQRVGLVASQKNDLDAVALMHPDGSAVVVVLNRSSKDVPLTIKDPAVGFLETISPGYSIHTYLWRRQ
Method in brief: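 Normal human glucocerebrosidase (0.2 nM final) was assayed with resorufin β-D-glucopyranoside (30 uM final) in 50mM citric acid/KH2PO4, 10mM sodium taurocholate, 0.01% tween-20, pH 5.9. Compounds were titrated; fluorescence (Ex 548, Em 600) read after 20 min at RT.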
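Note: the screen sought inhibitors.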
Potency is the fitted concentration of half-maximal effect.

Potency, active:
O=C(COC(=O)CSc1nnc(-c2ccc(Cl)cc2)o1)NCc1ccc2c(c1)OCO2 11 µM

Potency, inactive:
Cc1cccc(NC(=O)NCC(c2cccnc2)N2CCOCC2)c1 (stereo not drawn) > 76.9 µM
Cc1ccc2[nH]c(=O)c(CNC(C)C)cc2c1 > 76.9 µM
Cc1ccc(-n2[nH]c(C)c(/C=N/n3c(C)nc4ccccc4c3=O)c2=O)cc1 > 76.9 µM
Cc1oc(-c2cccs2)[n+]([O-])c1C > 76.9 µM
O=C(O)CCCCCn1c(SCC(=O)N2CCCC2)nc2ccsc2c1=O > 76.9 µM
CCOC(=O)c1cccc(N2C(=O)c3ccccc3S2(=O)=O)c1 > 76.9 µM
O=C(CSc1nc2ccccc2o1)Nc1ccc(N2CCOCC2)cc1 > 76.9 µM
CC(C)C(=O)Nc1cc2c(cc1C(=O)c1ccccc1)OCCO2 > 76.9 µM
CS(=O)c1nc(-c2ccc(Br)cc2)cc(-c2ccccc2)c1C#N (stereo not drawn) > 76.9 µM
COc1ccc(NC(=O)c2cc(Cl)ccc2NC(=O)c2ccco2)c(OC)c1 > 76.9 µM
COc1ccc2[nH]c(=O)c(CN(C)C(=O)C3CCCCC3)cc2c1 > 76.9 µM
O=C(Nc1nc(-c2cccs2)cs1)c1ccc(S(=O)(=O)N2CCCC2)cc1 > 76.9 µM
COCCn1c(C)cc(C(=O)COC(=O)CCc2ccc(S(=O)(=O)N3CCOCC3)cc2)c1C > 76.9 µM
CCOC(=O)N1CC=C2C(C#N)=C(N)C(C#N)(C#N)[C@H](c3ccc(OC(C)C)c(OCC)c3)[C@H]2C1 > 76.9 µM
COc1ccc2cc(CN(CCO)C(=O)c3ccc(Br)cc3)c(=O)[nH]c2c1 > 76.9 µM
CC1OC(Nc2ccc(OC(F)(F)F)cc2)C(O)C(O)C1O (stereo not drawn) > 76.9 µM
O=C1CC(c2cccs2)Sc2nc3ccccc3n21 (stereo not drawn) > 76.9 µM
COc1ccc(C)cc1NC(=O)c1ccc2c(c1)OCO2 > 76.9 µM
Cc1ccc(S(=O)(=O)Nc2ccccc2CNc2c(C)n(C)n(-c3ccccc3)c2=O)cc1 > 76.9 µM
COC(=O)CSc1nnc(CNC(=O)c2cccc(C)c2)n1-c1ccccc1OC > 76.9 µM
N#Cc1cc2c(nc1SCc1ccccc1)CCCC2=O > 76.9 µM
CCOc1ccccc1CNC(=O)CCN1C(=O)COc2ccccc21 > 76.9 µM
Cc1cccc(NC2(C(F)(F)F)N=C3SCCN3C2=O)n1 (stereo not drawn) > 76.9 µM
CCOC(=O)Nc1cc(OCC)c(NC(=O)C2CC2)cc1OCC > 76.9 µM
CCc1ccc2oc(-c3cc(N=Cc4cccc(OC)c4O)ccc3O)nc2c1 > 76.9 µM
Cc1cc(NC(=O)CCn2c(=O)sc3ccccc32)no1 > 76.9 µM
COc1cc(C(=O)Nc2ccccc2N2CCN(S(C)(=O)=O)CC2)cc(OC)c1OC > 76.9 µM
Cc1cc2c(=O)n(Cc3ccco3)c(SCC(=O)NCc3ccco3)nc2s1 > 76.9 µM
O=c1c2ccccc2nc(-c2ccccc2)n1CCCN1CCOCC1 > 76.9 µM
COc1cc2c(C(=O)NCc3ccc4c(c3)OCO4)cn(C)c(=O)c2cc1OC > 76.9 µM
COc1ccc(N2C(N)=C(C#N)C(c3cccnc3)C3=C2CC(C)(C)CC3=O)cc1 (stereo not drawn) > 76.9 µM
Cc1cc(C(=O)Nc2cccc(O)c2)c(C)o1 > 76.9 µM
Cc1ccc2cc3c(NC(=O)c4ccco4)nn(CC(C)C)c3nc2c1 > 76.9 µM
COCc1nnc(NC(=O)CC(C)c2ccccc2)s1 (stereo not drawn) > 76.9 µM
CCNc1cc(=O)n(C)c(=O)n1C > 76.9 µM
Cn1cnc2c1c(=O)n(CC(O)CO)c(=O)n2C (stereo not drawn) > 76.9 µM
COCCNC(=O)CN1CCC(NC(=O)Nc2ccccc2)CC1 > 76.9 µM
CCN(CC)c1ccc(C2C(C(=O)OC)=C(C)NC(C)=C2C(=O)OC)cc1 > 76.9 µM
Cc1nc2cc(NC(=O)NCCC3=CCCCC3)ccc2o1 > 76.9 µM
CCOC(=O)C1CCCN(C2CC(=O)N(c3cccc(C(F)(F)F)c3)C2=O)C1 (stereo not drawn) > 76.9 µM
Cc1cc2nc(SCC(=O)O)nc(C)c2cc1C > 76.9 µM
CC(C)CCNC(=O)CN(Cc1ccc2c(c1)OCO2)C(=O)CCC(=O)Nc1ccccn1 > 76.9 µM
Cc1ccc(Cn2nnc3c(=O)n(CC(=O)NCc4ccco4)cnc32)cc1 > 76.9 µM
CCOC(=O)CS(=O)(=O)c1ccc2ccccc2c1 > 76.9 µM
O=C1CC(N2CCOCC2)C(=O)N1Cc1ccc(N2CCCC2=O)cc1 (stereo not drawn) > 76.9 µM
COc1cc(C)c(S(=O)(=O)NCc2cccs2)cc1C > 76.9 µM
O=C(Nc1nc2ccccc2s1)C1CCCN1S(=O)(=O)c1ccc(Cl)cc1 (stereo not drawn) > 76.9 µM
CCC(C)(C(=O)NC1CCCC1)N(CC1CCCO1)C(=O)CNC(=O)c1ccccc1 (stereo not drawn) > 76.9 µM
CCCc1[nH]nc2c1C(CCc1ccccc1)C(C#N)=C(N)O2 (stereo not drawn) > 76.9 µM
COc1ccc(C(=O)c2ccccc2)c(O)c1 > 76.9 µM
O=C(CCc1ccc(CCC(=O)c2cccs2)s1)c1cccs1 > 76.9 µM
CCn1c(SCC(=O)Nc2ccccc2C)nnc1-c1ccccc1O > 76.9 µM
CCn1c(Cc2ccc(OC)cc2)nnc1SCC(=O)NC1CCCCC1 > 76.9 µM
COc1cc(C(N)=O)cc(Br)c1OC > 76.9 µM
COc1ccccc1N1CCN(C(=O)c2cnn3cccnc23)CC1 > 76.9 µM
CCCCC(=O)Nc1ccccc1C#N > 76.9 µM
CCC(C)C(=O)Nc1nnc(-c2cccs2)s1 (stereo not drawn) > 76.9 µM
